Several values for one entry are separate records, joined by “and”; a condition that tells them apart may be missing. Equal entries are not always repeated. The list shows a part of the results, in another mix than the full data.

What all share (experiment): cell viability relative to vehicle control; higher = less cytotoxic
What all share (details): 10 µM

One assay has as its system K562. An outline of the steps: (§1)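 Four leukaemia lines, as CRISPR-edited mutant clones and isogenic wild-type clones, were tested against Selleck bioactive, kinase and epigenetic probe libraries after removal of identity-inconsistent compounds. Cells were exposed to a single 10 µM dose for 48 h, and CellTiter-Glo luminescence was then read. Viability was calculated relative to the on-plate vehicle control.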

The subject of a further assay is MARIMO. Summed up:
as §1

The test system of a further assay is MOLM14. Summed up: as §1
The subject of a further assay is OCI-AML2. Summed up: as §1

For the compound `COC(=O)C(CCCN=C(N)N)NS(=O)(=O)c1ccc(C)cc1` (stereo unspecified), the cell viability in the assay with K562 (SRSF2 genotype: SRSF2 P95H/wt) was 109% and 104%; in the assay with K562 (SRSF2 genotype: SRSF2 wt/wt), 114%; in the assay on MARIMO (SRSF2 genotype: SRSF2 P95H/wt), 99.5%; with MARIMO (SRSF2 genotype: SRSF2 wt/wt) it was 99%; in the assay with MOLM14 (SRSF2 genotype: SRSF2 P95H/wt), 102%; with MOLM14 (SRSF2 genotype: SRSF2 wt/wt) it was 107%. The cell viability in the assay on OCI-AML2 (SRSF2 genotype: P95H/wt) was found to be 96.6%; in the assay on OCI-AML2 (SRSF2 genotype: wt/wt), 117%.

As to `Cc1nc2c(-c3cnc(N)nc3)nc(N3CCOCC3)nc2n1C(C)C`, the cell viability is 44.4% and 43% in the assay with K562 (SRSF2 genotype: SRSF2 P95H/wt); 37.7% with K562 (SRSF2 genotype: SRSF2 wt/wt); 42.6% with MARIMO (SRSF2 genotype: SRSF2 P95H/wt); 39.5% with MARIMO (SRSF2 genotype: SRSF2 wt/wt); 27.7% in the assay on MOLM14 (SRSF2 genotype: SRSF2 P95H/wt); 25.6% in the assay with MOLM14 (SRSF2 genotype: SRSF2 wt/wt). Moreover, the cell viability in the assay on OCI-AML2 (SRSF2 genotype: P95H/wt) turned out to be 8.06%; in the assay on OCI-AML2 (SRSF2 genotype: wt/wt), 16.9%.

Regarding `CN1C2CCC1CC(OC(=O)C(O)c1ccccc1)C2` (stereo unspecified) [Homatropine Bromide], the cell viability in the assay with MARIMO (SRSF2 genotype: SRSF2 P95H/wt) was 104%; in the assay on MARIMO (SRSF2 genotype: SRSF2 wt/wt), 118%; with MOLM14 (SRSF2 genotype: SRSF2 P95H/wt), 106%; in the assay on MOLM14 (SRSF2 genotype: SRSF2 wt/wt) it was 105%.

In the case of `Cc1ccccc1-n1c(Cn2nc(-c3cccc(O)c3)c3c(N)ncnc32)nc2cccc(C)c2c1=O`, the cell viability with K562 (SRSF2 genotype: SRSF2 P95H/wt) is 89.5% and 101%; in the assay on K562 (SRSF2 genotype: SRSF2 wt/wt), 88.4%; in the assay on MARIMO (SRSF2 genotype: SRSF2 P95H/wt), 98.3%; in the assay on MARIMO (SRSF2 genotype: SRSF2 wt/wt), 88.4%; in the assay with MOLM14 (SRSF2 genotype: SRSF2 P95H/wt), 84.7%; with MOLM14 (SRSF2 genotype: SRSF2 wt/wt), 76.6%. For the same compound, the cell viability with OCI-AML2 (SRSF2 genotype: P95H/wt) is 85.5%; in the assay with OCI-AML2 (SRSF2 genotype: wt/wt), 82.2%.

Turning to `Cc1ccc(C(=O)NCCCCCC(=O)Nc2ccccc2N)cc1`, the cell viability in the assay with K562 (SRSF2 genotype: SRSF2 P95H/wt) was 70.3% and 81.1%; with K562 (SRSF2 genotype: SRSF2 wt/wt), 83%; in the assay on MARIMO (SRSF2 genotype: SRSF2 P95H/wt), 50.5%; with MARIMO (SRSF2 genotype: SRSF2 wt/wt), 47.1%; with MOLM14 (SRSF2 genotype: SRSF2 P95H/wt), 39.2%; in the assay on MOLM14 (SRSF2 genotype: SRSF2 wt/wt) it was 30.1%. For the same compound, the cell viability in the assay with OCI-AML2 (SRSF2 genotype: P95H/wt) came to 29.4%; with OCI-AML2 (SRSF2 genotype: wt/wt) it was 42.5%.

For the origin of these results see the supplement of paper PMC10981050.
